In patent US20140213769A1 (KNU INDUSTRY COOPERATION FOUNDATION, published 2014):

Target: T1, VEGF165 (UniProt P15692-4 27-191)
T1 construct: Bought protein
T1 sequence (looked up): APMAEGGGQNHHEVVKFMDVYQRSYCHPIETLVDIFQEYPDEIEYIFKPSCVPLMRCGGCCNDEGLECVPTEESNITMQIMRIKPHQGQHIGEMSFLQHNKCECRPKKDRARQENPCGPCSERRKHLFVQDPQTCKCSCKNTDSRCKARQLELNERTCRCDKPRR
Assay: indirect ELISA, VEGF165 coated, as in Example 2

binding result: binds
B1: VEGF-trap (Fc) 2 (Fc fusion)
chain: GRYVQDYRSPFIASVSDQHGVVYITENKNKTVVIPCLGSISNLNVSLCARYPEKRFVPDGNRISWDSKKGFTIPSYMISYAGMVFCEAKINDESYQSIMYIVVVVGYRIDVVLSPSHGIELSVGEKLVLNCTARTELNVGIDFNWEYPSSKHQHKKLVNRDLKTQSGSEMKKFLSTLTIDGVTRSDQGLYTCAASSGLMTKKNSTFVRVHEKGPG[human IgG1 Fc cut from this listing]
notes: also called R2D2D3-hFc
